The text below walks through data of publication PMC12222028.

No constants are given. Whether binding was seen depends on the method and setting. For some assays here: Binding seen in cells or lysates may run through a third protein. Some binding calls cover weakened binding; strength is not graded here. For some assays here: Tags and fused reporters may be left off the sequences shown.

For assay [1], the target named is T1, Flag–ATP11B (human) (UniProt Q9Y2G3).
T1 sequence: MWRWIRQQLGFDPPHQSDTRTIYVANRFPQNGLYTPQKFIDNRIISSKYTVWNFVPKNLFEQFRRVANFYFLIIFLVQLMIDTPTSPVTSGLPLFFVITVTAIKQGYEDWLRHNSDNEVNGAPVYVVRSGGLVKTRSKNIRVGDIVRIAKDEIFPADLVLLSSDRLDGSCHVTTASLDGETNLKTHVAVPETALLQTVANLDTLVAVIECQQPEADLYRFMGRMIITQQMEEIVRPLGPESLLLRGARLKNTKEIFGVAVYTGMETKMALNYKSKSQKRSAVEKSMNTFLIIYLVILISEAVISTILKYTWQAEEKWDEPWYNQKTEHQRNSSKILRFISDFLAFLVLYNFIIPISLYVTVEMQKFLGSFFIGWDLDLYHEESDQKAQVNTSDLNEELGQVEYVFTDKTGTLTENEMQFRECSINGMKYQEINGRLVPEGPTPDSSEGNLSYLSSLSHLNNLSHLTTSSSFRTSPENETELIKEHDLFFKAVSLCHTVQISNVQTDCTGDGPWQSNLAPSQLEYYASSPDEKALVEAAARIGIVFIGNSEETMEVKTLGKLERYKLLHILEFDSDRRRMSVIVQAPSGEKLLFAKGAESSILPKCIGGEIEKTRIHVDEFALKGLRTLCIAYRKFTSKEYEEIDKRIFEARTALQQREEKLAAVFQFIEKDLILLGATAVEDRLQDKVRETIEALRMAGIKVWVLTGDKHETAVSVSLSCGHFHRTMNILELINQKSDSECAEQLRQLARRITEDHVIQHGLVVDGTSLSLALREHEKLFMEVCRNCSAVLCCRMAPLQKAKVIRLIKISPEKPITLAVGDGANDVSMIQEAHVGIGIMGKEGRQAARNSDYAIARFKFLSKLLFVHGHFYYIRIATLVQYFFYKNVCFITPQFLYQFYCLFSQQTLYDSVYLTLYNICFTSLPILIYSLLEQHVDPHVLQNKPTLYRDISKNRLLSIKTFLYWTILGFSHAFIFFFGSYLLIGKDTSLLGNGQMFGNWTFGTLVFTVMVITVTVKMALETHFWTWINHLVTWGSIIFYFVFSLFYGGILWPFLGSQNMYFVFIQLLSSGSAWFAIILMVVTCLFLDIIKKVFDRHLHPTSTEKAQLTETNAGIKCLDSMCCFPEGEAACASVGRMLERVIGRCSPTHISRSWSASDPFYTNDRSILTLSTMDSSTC
In words: co-IP; HEK293 cells transfected with tagged proteins; 0.5% DDM, 25 mM HEPES pH 7.4, 150 mM NaCl; anti-HA or anti-Flag magnetic beads; immunoblot. In general terms: Immunoblotting shows a protein as a band on a membrane.

The target of assay [2] is T2, ATP11B (human (endogenous in HEK293)) (UniProt Q9Y2G3).
T2 sequence: T1 sequence
Nature of the assay: native gel or EMSA; BN-MS: 0.5% DDM extract of purified early endosomes (HEK293) on a 4-16% NativePAGE gel, 48 slices, DIA mass spectrometry; co-fractionation profiles. (A gel shift assay detects complexes by their altered migration in electrophoresis.)

Assay [3] deals with T3, HA–TMEM230(Y29C/R78L/X121W) (human) (UniProt Q96A57).
T3 sequence: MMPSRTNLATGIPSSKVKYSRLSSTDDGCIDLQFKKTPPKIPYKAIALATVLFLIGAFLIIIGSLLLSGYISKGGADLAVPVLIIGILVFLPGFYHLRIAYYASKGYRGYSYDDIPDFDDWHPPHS
Nature of the assay: co-IP; HEK293 cells transfected with tagged proteins; 0.5% DDM, 25 mM HEPES pH 7.4, 150 mM NaCl; anti-HA or anti-Flag magnetic beads; immunoblot.

In assay [4] the target is T4, HA–TMEM230 (human) (UniProt Q96A57).
T4 sequence: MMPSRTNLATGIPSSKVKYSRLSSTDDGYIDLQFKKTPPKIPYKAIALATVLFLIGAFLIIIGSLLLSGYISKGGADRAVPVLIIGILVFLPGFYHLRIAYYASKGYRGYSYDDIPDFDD
Described as above.

Assay [5] addresses T5, RMC1 (human (endogenous in HEK293)) (UniProt Q96DM3).
T5 sequence: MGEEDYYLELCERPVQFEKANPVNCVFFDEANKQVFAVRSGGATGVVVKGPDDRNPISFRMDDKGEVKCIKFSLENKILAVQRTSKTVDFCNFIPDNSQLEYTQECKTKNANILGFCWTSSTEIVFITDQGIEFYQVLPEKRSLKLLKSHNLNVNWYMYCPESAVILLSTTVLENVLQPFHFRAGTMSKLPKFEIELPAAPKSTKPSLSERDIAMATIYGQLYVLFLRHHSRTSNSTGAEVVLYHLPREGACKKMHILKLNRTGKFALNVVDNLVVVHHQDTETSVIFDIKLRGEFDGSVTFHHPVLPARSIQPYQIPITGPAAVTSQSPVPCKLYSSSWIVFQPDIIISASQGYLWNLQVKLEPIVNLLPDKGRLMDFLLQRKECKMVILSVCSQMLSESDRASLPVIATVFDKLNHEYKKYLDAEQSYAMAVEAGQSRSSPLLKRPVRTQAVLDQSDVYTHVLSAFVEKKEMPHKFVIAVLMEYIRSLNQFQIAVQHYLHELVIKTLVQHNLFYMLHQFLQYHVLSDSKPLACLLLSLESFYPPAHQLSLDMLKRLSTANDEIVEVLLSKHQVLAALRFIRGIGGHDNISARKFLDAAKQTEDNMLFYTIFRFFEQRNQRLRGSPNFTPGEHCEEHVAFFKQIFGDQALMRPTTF
In words: cross-linking; XL-MS: intact early endosomes (Endo-IP, HEK293 cells expressing Flag-EEA1, eluted with 3xFlag peptide, no detergent) cross-linked with 1 mM DSSO in KPBS at room temperature for 40 min; XlinkX, 5% FDR.

B1: HA–TMEM230 (protein, UniProt Q96A57 1-120)
chain: T4 sequence
As to B1, in assay [1], the binding result is reported as “binds”.

B2: TMEM30A (protein, UniProt Q9NV96 1-361)
chain: MAMNYNAKDEVDGGPPCAPGGTAKTRRPDNTAFKQQRLPAWQPILTAGTVLPIFFIIGLIFIPIGIGIFVTSNNIREIEIDYTGTEPSSPCNKCLSPDVTPCFCTINFTLEKSFEGNVFMYYGLSNFYQNHRRYVKSRDDSQLNGDSSALLNPSKECEPYRRNEDKPIAPCGAIANSMFNDTLELFLIGNDSYPIPIALKKKGIAWWTDKNVKFRNPPGGDNLEERFKGTTKPVNWLKPVYMLDSDPDNNGFINEDFIVWMRTAALPTFRKLYRLIERKSDLHPTLPAGRYSLNVTYNYPVHYFDGRKRMILSTISWMGGKNPFLGIAYIAVGSISFLLGVVLLVINHKYRNSSNTADITI
As for B2, the binding result in assay [2] is “binds”.

B3: TMEM30A–V5 (protein, UniProt Q9NV96 1-361)
chain: B2 chain
As to B3, the binding result is “binds” in assay [1], “no binding” in assay [3] and “binds” in assay [4].

B4: Flag–ATP11B (protein, UniProt Q9Y2G3 1-1177)
chain: T1 sequence
As to B4, the results for the binding entry in assay [3] and in assay [4] were “no binding” and “binds”, respectively.

B5: CLCN7 (protein, UniProt P51798 1-805)
chain: MANVSKKVSWSGRDRDDEEAAPLLRRTARPGGGTPLLNGAGPGAARQSPRSALFRVGHMSSVELDDELLDPDMDPPHPFPKEIPHNEKLLSLKYESLDYDNSENQLFLEEERRINHTAFRTVEIKRWVICALIGILTGLVACFIDIVVENLAGLKYRVIKGNIDKFTEKGGLSFSLLLWATLNAAFVLVGSVIVAFIEPVAAGSGIPQIKCFLNGVKIPHVVRLKTLVIKVSGVILSVVGGLAVGKEGPMIHSGSVIAAGISQGRSTSLKRDFKIFEYFRRDTEKRDFVSAGAAAGVSAAFGAPVGGVLFSLEEGASFWNQFLTWRIFFASMISTFTLNFVLSIYHGNMWDLSSPGLINFGRFDSEKMAYTIHEIPVFIAMGVVGGVLGAVFNALNYWLTMFRIRYIHRPCLQVIEAVLVAAVTATVAFVLIYSSRDCQPLQGGSMSYPLQLFCADGEYNSMAAAFFNTPEKSVVSLFHDPPGSYNPLTLGLFTLVYFFLACWTYGLTVSAGVFIPSLLIGAAWGRLFGISLSYLTGAAIWADPGKYALMGAAAQLGGIVRMTLSLTVIMMEATSNVTYGFPIMLVLMTAKIVGDVFIEGLYDMHIQLQSVPFLHWEAPVTSHSLTAREVMSTPVTCLRRREKVGVIVDVLSDTASNHNGFPVVEHADDTQPARLQGLILRSQLIVLLKHKVFVERSNLGLVQRRLRLKDFRDAYPRFPPIQSIHVSQDERECTMDLSEFMNPSPYTVPQEASLPRVFKLFRALGLRHLVVVDNRNQVVGLVTRKDLARYRLGKRGLEELSLAQT
Consider B5, for which, in assay [5], the binding result is recorded as “binds”.
